# Results published in the supplement of paper PMC4967469.
# Tests used:
# Experiment in all cases: Viability of human cancer cell lines after 72 h of drug (GDSC screen)
# PLX4720 = compound: CCCS(=O)(=O)Nc1ccc(F)c(C(=O)c2c[nH]c3ncc(Cl)cc23)c1F [PLX4720]; settings: top dose 10 µM
# Method: (§1)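 Human cancer cell lines in 384-well plates, medium with 10% serum, drug for 72 h over a 256-fold dose range (nine 2-fold or five 4-fold steps up to the top dose). Adherent lines were fixed and stained with the nucleic acid dye Syto60, suspension lines read with resazurin; signal relative to control wells, capped at 0 and 100%. One two-parameter sigmoid per drug and line, fitted in a mixed model over all curves with the slope shared within a line.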
# Y-39983 = compound: C[C@@H](N)c1ccc(C(=O)Nc2ccnc3[nH]ccc23)cc1 [Y-39983]; settings: top dose 20 µM; top dose inferred
# Method: as §1
# Epothilone B = compound: C/C(=C\c1csc(C)n1)[C@@H]1C[C@@H]2O[C@]2(C)CCC[C@H](C)[C@H](O)[C@@H](C)C(=O)C(C)(C)[C@@H](O)CC(=O)O1 [Epothilone B]; settings: top dose 0.032 µM; top dose inferred
# Method: as §1
# TPCA-1 = compound: NC(=O)Nc1sc(-c2ccc(F)cc2)cc1C(N)=O [TPCA-1]; settings: top dose 20 µM
# Method: as §1
# PHA-793887 = compound: CC(C)CC(=O)Nc1n[nH]c2c1CN(C(=O)C1CCN(C)CC1)C2(C)C [PHA-793887]; settings: top dose 10.24 µM
# Method: as §1
# [1] = screen: GDSC drug entry 1371, top dose inferred
Cell Line,AUC (PLX4720; screen: GDSC drug entry 1036),IC50 (PLX4720; screen: GDSC drug entry 1036) [µM],AUC (PLX4720; [1]),IC50 (PLX4720; [1]) [µM],AUC (Y-39983),IC50 (Y-39983) [µM],AUC (Epothilone B),IC50 (Epothilone B) [µM],AUC (TPCA-1),IC50 (TPCA-1) [µM],AUC (PHA-793887),IC50 (PHA-793887) [µM]
"NCI-H2087 (lung adenocarcinoma, semi-adherent)",0.97,> 10,0.957,> 10,0.986,> 20,0.577,0.00331,0.83,13.9,0.795,5.17
"NCI-H2110 (non-small cell lung carcinoma, adherent)",0.95,> 10,0.985,> 10,0.81,10.9,0.525,0.00234,0.783,8.67,0.676,2.01
"NCI-H2122 (lung adenocarcinoma, adherent)",–,–,0.834,5.96,0.979,> 20,0.259,0.000431,0.952,> 20,0.933,> 10.2
"NCI-H2170 (lung squamous cell carcinoma, adherent)",–,–,0.981,> 10,0.98,> 20,0.551,0.00277,0.958,> 20,0.951,> 10.2
"NCI-H2172 (non-small cell lung carcinoma, adherent)",0.977,> 10,0.981,> 10,0.972,> 20,0.981,> 0.032,0.911,> 20,0.983,> 10.2
"NCI-H2291 (lung adenocarcinoma, adherent)",0.979,> 10,0.982,> 10,0.966,> 20,0.975,> 0.032,0.98,> 20,0.984,> 10.2
"NCI-H2342 (lung adenocarcinoma, adherent)",0.969,> 10,0.959,> 10,0.986,> 20,0.349,0.00073,0.955,> 20,0.984,> 10.2
"NCI-H2347 (lung adenocarcinoma, adherent)",0.982,> 10,0.979,> 10,0.983,> 20,0.856,> 0.032,0.876,> 20,0.905,> 10.2
"NCI-H2405 (lung adenocarcinoma, adherent)",0.981,> 10,0.966,> 10,0.955,> 20,0.666,0.00613,0.879,> 20,0.931,> 10.2
"NCI-H2444 (non-small cell lung carcinoma, adherent)",0.987,> 10,0.987,> 10,0.988,> 20,0.951,> 0.032,0.967,> 20,0.988,> 10.2
"NCI-H2452 (mesothelioma, adherent)",0.954,> 10,0.901,> 10,0.981,> 20,0.929,> 0.032,0.98,> 20,0.984,> 10.2
"NCI-H3122 (lung adenocarcinoma, adherent)",0.972,> 10,0.985,> 10,0.915,> 20,0.402,0.00107,0.939,> 20,0.719,2.73
"NUGC-3 (stomach, adherent)",0.882,> 10,0.957,> 10,0.959,> 20,0.429,0.00125,0.946,> 20,0.926,> 10.2
"NUGC-4 (stomach, adherent)",0.988,> 10,0.986,> 10,0.856,16.2,0.554,0.00282,0.613,2.56,0.973,> 10.2
"NY (osteosarcoma, adherent)",0.915,> 10,0.89,> 10,0.984,> 20,0.509,0.00212,0.951,> 20,0.978,> 10.2
"OAW-28 (ovary, adherent)",0.933,> 10,0.964,> 10,0.983,> 20,0.687,0.00774,0.739,7.38,0.938,> 10.2
"OAW-42 (ovary, adherent)",0.961,> 10,0.978,> 10,0.982,> 20,0.505,0.00207,0.966,> 20,0.876,> 10.2
"OCUM-1 (stomach, adherent)",0.975,> 10,0.985,> 10,0.971,> 20,0.808,0.0188,0.977,> 20,0.931,> 10.2
"OE19 (oesophagus, adherent)",0.975,> 10,0.985,> 10,0.985,> 20,0.602,0.00397,0.986,> 20,0.986,> 10.2
"OE21 (oesophagus, adherent)",0.965,> 10,0.914,> 10,0.963,> 20,0.58,0.00358,0.906,> 20,0.949,> 10.2
"OE33 (oesophagus, adherent)",0.976,> 10,0.982,> 10,0.971,> 20,0.673,0.00673,0.981,> 20,0.924,> 10.2
"OSC-19 (head and neck, adherent)",0.972,> 10,0.984,> 10,0.978,> 20,0.386,0.00096,0.882,> 20,0.916,> 10.2

Cell Line,AUC (PLX4720; screen: GDSC drug entry 1036),IC50 (PLX4720; screen: GDSC drug entry 1036) [µM],AUC (PLX4720; [1]),IC50 (PLX4720; [1]) [µM],AUC (Y-39983),IC50 (Y-39983) [µM],AUC (Epothilone B),IC50 (Epothilone B) [µM],AUC (TPCA-1),IC50 (TPCA-1) [µM],AUC (PHA-793887),IC50 (PHA-793887) [µM]
"OSC-20 (head and neck, adherent)",0.886,> 10,0.909,> 10,0.961,> 20,0.41,0.00108,0.856,> 20,0.857,> 10.2
"OV-90 (ovary, adherent)",0.964,> 10,0.948,> 10,0.96,> 20,0.803,0.0213,0.928,> 20,0.864,> 10.2
"OVCAR-3 (ovary, adherent)",0.963,> 10,0.97,> 10,0.984,> 20,0.622,0.00448,0.983,> 20,0.987,> 10.2
"OVCAR-5 (ovary, adherent)",0.982,> 10,0.976,> 10,0.885,> 20,0.542,0.00266,0.908,> 20,0.764,4.45
"OVCAR-8 (ovary, adherent)",0.968,> 10,0.989,> 10,0.883,17.6,0.418,0.00122,0.837,11.5,0.854,6.8
"OVISE (ovary, adherent)",0.872,> 10,0.978,> 10,0.968,> 20,0.832,0.0305,0.839,> 20,0.683,2.47
"OVKATE (ovary, adherent)",0.979,> 10,0.977,> 10,0.967,> 20,0.979,> 0.032,0.631,3.68,0.893,> 10.2
"OVMIU (ovary, adherent)",0.878,> 10,0.978,> 10,0.958,> 20,0.588,0.0037,0.764,9.02,0.81,7.09
"OVTOKO (ovary, adherent)",0.85,> 10,0.952,> 10,0.934,> 20,0.609,0.00434,0.834,18.4,0.92,> 10.2
"P12-ICHIKAWA (T-cell lymphoblastic leukaemia, suspension)",0.98,> 10,0.994,> 10,0.957,> 20,0.72,0.00706,0.806,7.55,0.669,1.67
"PA-1 (ovary, adherent)",0.881,6.66,–,–,0.92,19.1,0.33,0.000755,0.37,0.598,0.148,0.076
"PA-TU-8902 (pancreas, adherent)",0.974,> 10,0.976,> 10,0.896,> 20,0.788,0.0167,0.712,5.58,0.85,9.86
"PA-TU-8988T (pancreas, adherent)",–,–,0.986,> 10,0.974,> 20,0.396,0.00103,0.957,> 20,0.844,7.36
"PANC-02-03 (pancreas, adherent)",0.981,> 10,0.974,> 10,0.972,> 20,0.726,0.0101,0.642,3.36,0.9,> 10.2
"PANC-03-27 (pancreas, adherent)",0.983,> 10,0.978,> 10,0.963,> 20,0.246,0.000395,0.802,9.1,0.725,2.65
"PANC-04-03 (pancreas, adherent)",0.958,> 10,–,–,0.978,> 20,0.762,0.0188,0.958,> 20,0.973,> 10.2
"PANC-08-13 (pancreas, adherent)",–,–,0.981,> 10,0.939,> 20,0.81,0.023,0.734,7.16,0.668,2.15
"PANC-10-05 (pancreas, adherent)",0.918,> 10,0.979,> 10,0.959,> 20,0.453,0.00144,0.89,> 20,0.752,4.28
"PC-3 (prostate, adherent)",0.904,> 10,0.98,> 10,0.957,> 20,0.796,0.0189,0.846,19.7,0.795,5.96
"PC-3 [JPC-3] (lung adenocarcinoma, adherent)",0.971,> 10,0.938,> 10,0.967,> 20,0.645,0.00576,0.762,9.43,0.82,8.53
"PC-14 (lung adenocarcinoma, adherent)",0.952,> 10,0.965,> 10,0.956,> 20,0.616,0.00401,0.847,12.4,0.756,3.15
"PCI-4B (head and neck, adherent)",0.909,> 10,0.964,> 10,0.953,> 20,0.269,0.000458,0.866,16.3,0.652,1.65

# IC50 is the fitted dose that halves viability relative to control wells, and lower means more sensitive; a limit (>, <) means that the fit lies beyond the doses tested. The AUC spans the tested range (256-fold, ending at the top dose) of the same fit; values near 1 show little effect. For part of these data: The top dose, if marked as inferred, was derived from the fitted curves, not read from the paper. For part of these data: Where an entry number is given, a second screen of the drug exists; the two often differ.
